Laboratory results taken from US10925856B2, “Methods and compositions involving bucindolol for the treatment of atrial fibrillation” (priority 2018, dated 2021).
Read-outs that look alike come from different tables or passages of the source.

Test system: HFrEF patients with the ADRB1 Arg389Arg genotype at high risk for recurrent AF
Conditions: for Hazard Ratio Unadjusted, primary endpoint (1EP) / Time to AF/AFL/ACM, Non-stratified HR (95% CI) / Time to AF/AFL/ACM, Stratified HR (95% CI) / Hazard ratio (95% C.I.): bucindolol vs metoprolol; for Events/pts (%) / Events/pts, time to any AF/AFL or ACM / Hazard ratio (95% C.I.): Entire Cohort; for Hazard ratio (CIs): Buc vs Met; for Phase 2 primary endpoint hazard ratio (HzR) / Ratio: 1-(Hazard ratio at ≤0/hazard ratio at interval) × 100: LVEF ≥0.39
[1] = CYP2D6 Extensive/Ultra Metabolizer (EM/UM)
[2] = CYP2D6 Intermediate Metabolizer (IM)
[3] = CYP2D6 Intermediate Metabolizers
[4] = LVEF <0.39, EC, All Patients/DTRIs
[5] = LVEF <0.39, EC, DTRI Q1: −15,251 to −311 days
[6] = LVEF <0.39, EC, DTRI Q2: −310 to −1 days
[7] = LVEF <0.39, EC, DTRI Q3: 0 to +44 days
[8] = LVEF <0.39, EC, DTRI Q4: +45 to +9533 days
[9] = LVEF <0.39, U.S., All Patients/DTRIs
[10] = LVEF <0.39, U.S., DTRI Q1: −15,251 to −311 days
[11] = LVEF <0.39, U.S., DTRI Q2: −310 to −1 days
[12] = LVEF <0.39, U.S., DTRI Q3: 0 to +44 days
[13] = LVEF <0.39, U.S., DTRI Q4: +45 to +9533 days
[14] = LVEF >0.39, EC, All Patients/DTRIs
[15] = LVEF >0.39, EC, DTRI Q1: −15,251 to −311 days
[16] = LVEF >0.39, EC, DTRI Q2: −310 to −1 days
[17] = LVEF >0.39, EC, DTRI Q3: 0 to +44 days
[18] = LVEF >0.39, EC, DTRI Q4: +45 to +9533 days
[19] = LVEF >0.39, U.S., All Patients/DTRIs
[20] = LVEF >0.39, U.S., DTRI Q1: −15,251 to −311 days
[21] = LVEF >0.39, U.S., DTRI Q2: −310 to −1 days
[22] = LVEF >0.39, U.S., DTRI Q3: 0 to +44 days
[23] = LVEF >0.39, U.S., DTRI Q4: +45 to +9533 days

Compound: CC(C)(Cc1c[nH]c2ccccc12)NCC(O)COc1ccccc1C#N (centres unmarked) [bucindolol, 2-(3-(1-(1H-indol-3-yl)-2-methylpropan-2-ylamino)-2-hydroxypropoxy)benzonitrile]
- 1EP Events [1]: 61
- 1EP Events (rate) [1]: (58%)
- Hazard Ratio Unadjusted, primary endpoint (1EP) [1]: 1.01
- 1EP Events [2]: 2
- 1EP Events (rate) [2]: (22%)
- Hazard Ratio Unadjusted, primary endpoint (1EP) [2]: 0.24
- Hazard ratio, Phase 2 primary endpoint, bucindolol vs. metoprolol [3]: 0.24
- Primary endpoint event rate [3]: 22%
- 1EP Events (CYP2D6 Poor Metabolizer (PM)): 8
- 1EP Events (rate) (CYP2D6 Poor Metabolizer (PM)): (67%)
- Hazard Ratio Unadjusted, primary endpoint (1EP) (CYP2D6 Poor Metabolizer (PM)): 2.19
- Hazard ratio, Phase 2 primary endpoint, bucindolol vs. metoprolol (CYP2D6 Poor Metabolizers, adjusted): 2.57
- Failed ECV at day 0 (Canada): 21%
- Time to AF/AFL/ACM, Non-stratified HR (95% CI) (Canada (N = 59)): 1.42
- Time to AF/AFL/ACM, Stratified HR (95% CI) (Canada (N = 59)): 1.52
- hazard ratio, Phase 2 (time to any AF/AFL or ACM) (Canada (n = 59), covariate adjusted): 1.52
- Hazard ratio, time to first AF/AFL/ACM, bucindolol vs. metoprolol (Canada, covariate adjusted): 1.52
- Patients who failed ECV on day 0 (Canada, number of patients): 4
- Hazard ratio, time to first AF/AFL/ACM, bucindolol vs. metoprolol (Canada, unadjusted): 1.42
- Hazard ratio, time to first AF/AFL/ACM, bucindolol vs. metoprolol (DxT10/DTRI-1 criteria): 0.51
- Hazard ratio, time to first AF/AFL/ACM, bucindolol vs. metoprolol (DxT12/DTRI-2 cohort N=196 (HF and AF <12 years, AF not preceding HF by >2 years), ECG-based): 0.54
- Hazard ratio, time to first AF/AFL/ACM, bucindolol vs. metoprolol (DxT12/DTRI-2 cohort, HFlrEF (LVEF <0.40) N=105): 0.69
- Hazard ratio, time to first AF/AFL/ACM, bucindolol vs. metoprolol (DxT12/DTRI-2 cohort, HFmrEF (LVEF ≥0.40 and <0.50) N=91): 0.42
- Effectiveness by LVEF group (DxT12/DTRI-2 population, FIG. 30): higher in patient groups having higher LVEF
- Hazard ratio, time to first AF/AFL/ACM, bucindolol vs. metoprolol (DxT12: excluding AF or HF >12 years, N=230): 0.68
- Hazard ratio, time to first AF/AFL/ACM, bucindolol vs. metoprolol (DxT15/DTRI-3 criteria): 0.63
- Events/pts (%) (LVEF 0.30-0.39 (mean 0.337)): (58%)
- Events/pts, time to any AF/AFL or ACM (LVEF 0.30-0.39 (mean 0.337)): 21/36
- Hazard ratio (95% C.I.) (LVEF 0.30-0.39): 1.13
- Events/pts (%) (LVEF 0.40-0.49 (mean 0.447)): (53%)
- Events/pts, time to any AF/AFL or ACM (LVEF 0.40-0.49 (mean 0.447)): 33/62
- Hazard ratio (95% C.I.) (LVEF 0.40-0.49): 0.84
- Events/pts (%) (LVEF <0.30 (mean 0.228)): (52%)
- Events/pts, time to any AF/AFL or ACM (LVEF <0.30 (mean 0.228)): 17/33
- Hazard ratio (95% C.I.) (LVEF <0.30): 0.95
- Events/pts (%) (NYHA Class I): (38%)
- Events/pts, time to any AF/AFL or ACM (NYHA Class I): 15/40
- Hazard ratio (95% C.I.) (NYHA Class I): 0.72
- Events/pts (%) (NYHA Class II): (64%)
- Events/pts, time to any AF/AFL or ACM (NYHA Class II): 51/80
- Hazard ratio (95% C.I.) (NYHA Class II): 1.12
- Events/pts (%) (NYHA Class III): (50%)
- Events/pts, time to any AF/AFL or ACM (NYHA Class III): 7/14
- Hazard ratio (95% C.I.) (NYHA Class III): 0.83
- hazard ratio, Phase 2 (time to any AF/AFL or ACM) (Entire cohort (n = 267), covariate adjusted): 1.01
- Time to AF/AFL/ACM, Non-stratified HR (95% CI) (Europe (N = 81)): 1.06
- Time to AF/AFL/ACM, Stratified HR (95% CI) (Europe (N = 81)): 1.01
- hazard ratio, Phase 2 (time to any AF/AFL or ACM) (Europe (n = 81), covariate adjusted): 1.01
- Failed ECV at day 0 (Europe excluding Hungary): 0%
- Hazard ratio, time to first AF/AFL/ACM, bucindolol vs. metoprolol (Europe excluding Hungary): 0.50
- Hazard ratio, time to first AF/AFL/ACM, bucindolol vs. metoprolol (Europe, covariate adjusted): 1.01
- Failed ECV at day 0 (Hungary): 33%
- Hazard ratio, time to first AF/AFL/ACM, bucindolol vs. metoprolol (Hungary (FIG. 5C, covariate adjusted)): 2.90
- Time to AF/AFL/ACM, Non-stratified HR (95% CI) (Hungary (N = 33)): 3.57
- Time to AF/AFL/ACM, Stratified HR (95% CI) (Hungary (N = 33)): 2.90
- Hazard ratio, primary endpoint, bucindolol vs. metoprolol (Hungary and Canada): > 1.5
- Hazard ratio, time to first AF/AFL/ACM, bucindolol vs. metoprolol (Hungary, unadjusted): 3.57
- event rate [4]: (55%)
- event rate, events/patients [4]: 38/69
- Hazard ratio (CIs) [4]: 1.02
- event rate [5]: (69%)
- event rate, events/patients [5]: 11/16
- Hazard ratio (CIs) [5]: 0.83
- event rate [6]: (43%)
- event rate, events/patients [6]: 6/14
- Hazard ratio (CIs) [6]: 0.51
- event rate [7]: (53%)
- event rate, events/patients [7]: 8/15
- Hazard ratio (CIs) [7]: 1.70
- event rate [8]: (54%)
- event rate, events/patients [8]: 13/24
- Hazard ratio (CIs) [8]: 0.92
- event rate [9]: (49%)
- event rate, events/patients [9]: 17/35
- Hazard ratio (CIs) [9]: 0.80
- event rate [10]: (83%)
- event rate, events/patients [10]: 5/6
- Hazard ratio (CIs) [10]: 1.18
- event rate [11]: (33%)
- event rate, events/patients [11]: 2/6
- Hazard ratio (CIs) [11]: 0.43
- event rate [12]: (43%)
- event rate, events/patients [12]: 3/7
- Hazard ratio (CIs) [12]: 1.62
- event rate [13]: (44%)
- event rate, events/patients [13]: 7/16
- Hazard ratio (CIs) [13]: 0.57
- event rate [14]: (54%)
- event rate, events/patients [14]: 35/65
- Hazard ratio (CIs) [14]: 0.89
- event rate [15]: (58%)
- event rate, events/patients [15]: 11/19
- Hazard ratio (CIs) [15]: 1.52
- event rate [16]: (56%)
- event rate, events/patients [16]: 10/18
- Hazard ratio (CIs) [16]: 0.63
- event rate [17]: (58%)
- event rate, events/patients [17]: 11/19
- Hazard ratio (CIs) [17]: 0.83
- event rate [18]: (33%)
- event rate, events/patients [18]: 3/9
- Hazard ratio (CIs) [18]: 0.48
- event rate [19]: (64%)
- event rate, events/patients [19]: 16/25
- Hazard ratio (CIs) [19]: 0.57
- event rate [20]: (80%)
- event rate, events/patients [20]: 4/5
- Hazard ratio (CIs) [20]: 1.04
- event rate [21]: (63%)
- event rate, events/patients [21]: 5/8
- Hazard ratio (CIs) [21]: 0.54
- event rate [22]: (67%)
- event rate, events/patients [22]: 4/6
- Hazard ratio (CIs) [22]: 0.70
- event rate [23]: (50%)
- event rate, events/patients [23]: 3/6
- Hazard ratio (CIs) [23]: 0.35
- Phase 2 primary endpoint hazard ratio (HzR) (DTRI lower bound ≤0, upper bound +9533 days): 0.56
- Ratio: 1-(Hazard ratio at ≤0/hazard ratio at interval) × 100 (DTRI lower bound ≤−30): +3.7%
- Phase 2 primary endpoint hazard ratio (HzR) (DTRI lower bound ≤−30, upper bound +9533 days): 0.54
- Ratio: 1-(Hazard ratio at ≤0/hazard ratio at interval) × 100 (DTRI lower bound ≤−60): −3.4%
- Phase 2 primary endpoint hazard ratio (HzR) (DTRI lower bound ≤−60, upper bound +9533 days): 0.58
- Ratio: 1-(Hazard ratio at ≤0/hazard ratio at interval) × 100 (DTRI lower bound ≤−90): −13.8%
- Phase 2 primary endpoint hazard ratio (HzR) (DTRI lower bound ≤−90, upper bound +9533 days): 0.65
- Ratio: 1-(Hazard ratio at ≤0/hazard ratio at interval) × 100 (DTRI lower bound ≤−180): −18.8%
- Phase 2 primary endpoint hazard ratio (HzR) (DTRI lower bound ≤−180, upper bound +9533 days): 0.69
- Ratio: 1-(Hazard ratio at ≤0/hazard ratio at interval) × 100 (DTRI lower bound ≤−365): −8.2%
- Phase 2 primary endpoint hazard ratio (HzR) (DTRI lower bound ≤−365, upper bound +9533 days): 0.61
- Ratio: 1-(Hazard ratio at ≤0/hazard ratio at interval) × 100 (DTRI lower bound ≤−730): −23.4%
- Phase 2 primary endpoint hazard ratio (HzR) (DTRI lower bound ≤−730, upper bound +9533 days): 0.73
- Time to AF/AFL/ACM, Non-stratified HR (95% CI) (Non-U.S. (N = 140)): 1.22
- Time to AF/AFL/ACM, Stratified HR (95% CI) (Non-U.S. (N = 140)): 1.34
- Time to AF/AFL/ACM, Non-stratified HR (95% CI) (Poland (N = 23)): 0.28
- Time to AF/AFL/ACM, Stratified HR (95% CI) (Poland (N = 23)): 0.25
